Measurements taken from PubChem BioAssay AID485364 (National Center for Advancing Translational Sciences (NCATS), 2010).
The whole screen tested about 360,000 compounds, of which about 11,000 (3.1%) were called active. Inconclusive means that the source gave no clear call. Such entries were picked first, then a sample of the others. The call rests on the fitted dose curve; in most records, active means well fitted inhibition curve with a large enough effect; inconclusive means small, poorly fitted or top-dose-only effect; inactive means no such curve, though single readings can be large or run the other way. Potencies of inconclusive entries are left out as doubtful fits.

Biological target: Schistosoma mansoni thioredoxin glutathione reductase (TGR) (UniProt Q962Y6)
Test: qHTS Assay for the Inhibitors of Schistosoma Mansoni Peroxiredoxins; further: nearly all actives have a fitted effect of over 60% in size
Conditions: purified TGR, DTNB reduction, TNB absorbance 405 nm; activity change, negative = inhibition: at 114 µM (top of the series) unless noted
Outline: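 TGR 20 nM + NADPH 100 uM (dispensed conc.), cpd preinc 15 min RT; start with NADPH (500 uM addition) then DTNB (15 mM addition). Kinetic TNB absorbance, 405 nm filter. Four-parameter Hill fit across titration.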
On the % scale 0 is the no-effect control and ±100 the full control effect; potency means the concentration at half of the fitted maximal effect; tags describe the fitted curve by direction and shape.

Row | SMILES | Potency | activity change, negative = inhibition
1 | COc1cc(O)c(C(CC(=O)N2CCOCC2)c2ccc(N(C)C)cc2)c(OC)c1 (stereo unspecified) | inconclusive [inhibitor, partial curve] | –
2 | Cc1ccc(-c2nc(CNC(=O)c3ccco3)cs2)cc1 | inconclusive [inhibitor, partial curve] | –
3 | CC(C)Oc1ccc(-c2nc(NCC3CCCO3)c3ccccc3n2)cc1 (stereo unspecified) | – | inactive: 7%
4 | CCc1cc2c(NCC3CCCO3)ncnc2s1 (stereo unspecified) | inconclusive [inhibitor, full curve] | –
5 | Cc1ccc(C(=O)C2CCN(C(=S)NCCCOC(C)C)CC2)cc1 | – | inactive: 10.5%
6 | Cc1ccc(NC(=O)CNc2ccccc2N2CCCC2=O)cc1S(=O)(=O)N1CCCCC1 | – | inactive: -12.4%
7 | CN(C)CCCNC(=O)c1cc(Br)ccc1Cl | – | inactive: 0%
8 | Clc1cc(NCc2cccs2)ccc1N1CCOCC1 | active: 44.7 µM | –
9 | Cc1ccc(-c2nc3cc(NC(=O)c4cc(Br)ccc4Cl)ccc3o2)cc1 | – | inactive: 0.888%
10 | Cc1ccc(-c2n[nH]c3c2C(c2cccs2)N(c2ccc(Cl)cc2)C3=O)cc1 (stereo unspecified) | – | inactive: 2.44%
11 | CCOC(=O)CSc1nc2cc(OCC)ccc2cc1C#N | inconclusive [inhibitor, single point] | –
12 | O=C(COc1coc(CN2CCN(c3ccccc3)CC2)cc1=O)Nc1ccccc1 | inconclusive [inhibitor, partial curve, poor fit] | –
13 | CCC(=O)N(CC)C1=C(O)c2ccccc2C(=O)C1=O | active: 0.282 µM | –
14 | Cn1nccc1C(=O)N1CCN(c2ccc(F)cc2)CC1 | inconclusive [inhibitor, single point] | –
15 | CCOC(=O)C1CCCN(C(=O)CCc2nnc(-c3ccc(C(C)=O)s3)o2)C1 (stereo unspecified) | active: 15.8 µM | –
16 | C/C(=N\NC(=O)c1sccc1C)c1cccnc1 | inconclusive [inhibitor, full curve, poor fit] | –
17 | Cc1ccccc1CN1CCNC(=O)C1CC(=O)NCCN1CCCCC1=O (stereo unspecified) | inconclusive [inhibitor, partial curve, poor fit] | –
18 | COc1ccc(S(=O)(=O)c2cnc3ccccc3n2)cc1 | inconclusive [inhibitor, full curve] | –
19 | COC(=O)c1ccc2c(c1)N(Cc1ccccc1)C(=O)c1ccccc1S2(=O)=O | – | inactive: 4.08%
20 | COc1cccc(C2C=C(c3ccc(Br)s3)Nc3ncnn32)c1OC (stereo unspecified) | inconclusive [inhibitor, partial curve] | –
21 | Cc1cccc[n+]1CC(=O)c1ccc(NC(=O)c2ccccc2)cc1 | inconclusive [inhibitor, single point] | –
22 | O=C(NCc1ccco1)C(=O)NCC1OCCN1S(=O)(=O)c1cc(F)ccc1F (stereo unspecified) | inconclusive [inhibitor, partial curve] | –
23 | CCCc1ccc2oc(C(=O)N3CCN(C4CCS(=O)(=O)C4)CC3)c(C)c2c1 (stereo unspecified) | – | inactive: -27.4%

Row | SMILES | Potency | activity change, negative = inhibition
24 | O=C(O)/C(CC(=O)c1ccc(Cl)cc1)=N/Nc1ccc([N+](=O)[O-])cc1[N+](=O)[O-] | inconclusive [inhibitor, full curve] | –
25 | CN(C)c1cc(Nc2cccc(O)c2)c([N+](=O)[O-])c2nonc12 | inconclusive [inhibitor, partial curve] | –
26 | O=C(Nc1cccc2ccccc12)N1CCN(c2ccc(F)cc2)CC1 | – | inactive: 1.21%
27 | COCC(=O)c1[nH]c2ccccc2c1C | inconclusive [inhibitor, partial curve] | –
28 | COc1ccccc1-c1cc(N)n[nH]1 | – | inactive: -0.406%
29 | COc1ccc(-c2nc(CS(=O)CC(=O)NCc3ccc4c(c3)OCO4)c(C)o2)cc1OC (stereo unspecified) | active: 39.8 µM | –
30 | COc1cc(Br)cc(-c2nc3c(c(=O)[nH]c(=O)n3Cc3ccccc3)n2C)c1O | inconclusive [inhibitor, partial curve] | –
31 | CCOC(=O)c1c(C)n(C)c2ccc(O)c(CN3CCN(C)CC3)c12 | active: 35.5 µM | –
32 | COc1ccc(-n2nc(C(=O)NCC(=O)NCCCN3CCCCCC3)c3ccccc3c2=O)cc1Cl | inconclusive [inhibitor, full curve, poor fit] | –
33 | Clc1ccc(CN2CCc3c([nH]c4ccccc34)C2)cc1Cl | inconclusive [inhibitor, partial curve] | –
34 | COc1ccc(CN2CCNC(=O)C2CC(=O)N(Cc2nccn2C)C(C)C)c(OC)c1 (stereo unspecified) | inconclusive [inhibitor, partial curve] | –
35 | O=C1CCC/C1=C\Nc1ccc(Cl)c([N+](=O)[O-])c1 | inconclusive [inhibitor, partial curve] | –
36 | COCCc1nn2c(=O)cc(COC(=O)c3ccc(Br)cc3)nc2s1 | active: 89.1 µM | –
37 | O=C(N/N=C/c1ccc([N+](=O)[O-])o1)C(O)c1ccccc1 (stereo unspecified) | active: 44.7 µM | –
38 | CN(C)S(=O)(=O)c1cccc(NC(=O)COC(=O)/C=C/c2ccco2)c1 | inconclusive [inhibitor, full curve, poor fit] | –
39 | COc1ccccc1C(CNC(=O)c1ccc(OCc2c(C)noc2C)cc1)N1CCCC1 (stereo unspecified) | inconclusive [inhibitor, partial curve] | –
40 | COc1ccc(CN2CCC(c3nc4ccc(Cl)cc4[nH]3)CC2)cc1 | inconclusive [inhibitor, single point] | –
41 | CCOC(=O)C1=C(C)NC(C)=C(C(=O)OCC)C1c1ccc([N+](=O)[O-])s1 | inconclusive [inhibitor, partial curve] | –
42 | CCOc1ccc(NC(=O)CN(C)C(=O)c2ccc(-c3ccc(C(C)=O)cc3)o2)cc1OCC | inconclusive [inhibitor, partial curve] | –
43 | O=C(CN1CCN(CC(=O)c2ccc(F)cc2)CC1)Nc1ccccc1Cl | active: 14.1 µM | –
44 | COc1ccc(C(=O)Cn2c(C(=O)/C=C/c3ccccc3)nc3ccccc32)cc1 | – | inactive: 4.26%
45 | COc1ccc(Nc2cc(C(=O)NCCCN3CCOCC3)c3ccccc3n2)cc1 | – | inactive: -0.424%
46 | O=C(Nc1ccc2c(c1)nc1n2CCN(Cc2ccccc2)C1)NC1CCCCC1 | inconclusive [inhibitor, partial curve] | –
